# Assay results from paper PMC4336329 (PLoS ONE, 2015).
# The campaign covered roughly 310,000 compounds. About 14,000 (4.5%) showed an effect of 50% or more. The effect is printed as a negative number. This is one part of the list.
# Biological target: human ether-à-go-go-related gene (hERG) potassium channel (human, UniProt Q12809)
# Assay: primary screen, population patch clamp on CHO cells stably expressing hERG
# 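Further: peak tail current of the secondary pulse compared with the same well before compound.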
# Sequence of human ether-à-go-go-related gene (hERG) potassium channel (Q12809 whole entry, looked up): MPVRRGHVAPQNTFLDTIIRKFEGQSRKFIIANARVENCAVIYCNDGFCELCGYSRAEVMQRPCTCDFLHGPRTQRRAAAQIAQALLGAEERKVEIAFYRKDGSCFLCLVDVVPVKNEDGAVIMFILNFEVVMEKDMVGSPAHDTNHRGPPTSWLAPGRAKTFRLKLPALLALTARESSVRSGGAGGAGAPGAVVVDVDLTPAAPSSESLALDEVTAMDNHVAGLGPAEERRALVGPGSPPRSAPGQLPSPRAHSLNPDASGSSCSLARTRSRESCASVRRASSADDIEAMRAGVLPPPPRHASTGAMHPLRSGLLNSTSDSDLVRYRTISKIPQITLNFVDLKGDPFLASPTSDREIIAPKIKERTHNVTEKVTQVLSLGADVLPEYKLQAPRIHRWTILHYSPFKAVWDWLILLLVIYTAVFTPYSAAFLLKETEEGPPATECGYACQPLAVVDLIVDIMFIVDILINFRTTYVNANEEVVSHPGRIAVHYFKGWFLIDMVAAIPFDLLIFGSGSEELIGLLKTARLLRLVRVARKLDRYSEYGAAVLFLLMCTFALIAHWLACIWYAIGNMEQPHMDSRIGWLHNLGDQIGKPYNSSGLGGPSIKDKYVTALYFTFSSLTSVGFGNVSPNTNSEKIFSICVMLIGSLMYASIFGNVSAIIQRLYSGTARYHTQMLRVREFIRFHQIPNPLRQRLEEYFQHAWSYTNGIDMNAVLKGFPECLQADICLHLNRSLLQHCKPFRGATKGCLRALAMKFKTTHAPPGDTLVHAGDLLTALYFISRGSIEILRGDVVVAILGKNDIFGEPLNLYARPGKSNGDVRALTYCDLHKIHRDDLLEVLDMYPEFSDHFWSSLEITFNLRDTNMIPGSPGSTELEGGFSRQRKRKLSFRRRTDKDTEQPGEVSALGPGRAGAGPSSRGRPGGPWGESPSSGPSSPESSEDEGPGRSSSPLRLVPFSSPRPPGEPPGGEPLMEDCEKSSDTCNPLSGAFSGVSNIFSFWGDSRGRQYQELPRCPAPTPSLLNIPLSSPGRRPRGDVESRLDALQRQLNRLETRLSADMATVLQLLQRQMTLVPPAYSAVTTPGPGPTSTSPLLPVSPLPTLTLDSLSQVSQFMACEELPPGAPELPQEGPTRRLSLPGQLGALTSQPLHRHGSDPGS
row,Compound,"hERG current change (%, negative = inhibition) at 10uM [%]"
1,Cc1cccc(OCc2nnc(SCCC(=O)O)n2-c2ccccc2)c1,15.5
2,O=C(CCCn1c(=O)[nH]c2ccc(Br)cc2c1=O)NCc1ccc(Cl)cc1,7.19
3,O=C(c1noc2c1CCCC2)N1CCN(c2ccccc2)CC1,-17.6
4,O=C(CN1CCOCC1)OCCCc1ccccc1,9.77
5,Cc1ccc(S(=O)(=O)/N=S(/C)c2ccccc2)cc1 (stereo not drawn),12.6
6,C#CC(CC)(CC)NC(=O)c1c(C)noc1C,-10.9
7,COc1cccc(CN2C(=O)c3cccc(N)c3C2=O)c1,-12.1
8,COc1nc2ccccc2nc1N1CCN(c2ccc(F)cc2)CC1,17.5
9,COc1ccc(/C=N\NC(=O)CNC(=O)C(c2ccccc2)c2ccccc2)cc1[N+](=O)[O-],-16.9
10,COCCCNC(=O)c1ccc(NC(C)=O)cc1,-0.918
11,COc1ccc(-c2ccc(C3C(C#N)=C(N)Oc4n[nH]c(C)c43)o2)cc1 (stereo not drawn),21.8
12,CC1(C)Cc2c(sc(NC(=O)C(=O)N3CCCC3)c2C(=O)O)CO1,15.6
13,Cc1cc(C(=O)c2ccccc2)nc2ccccc12,-3.13
14,CS(=O)(=O)N1CCCC(C(=O)NCc2ccc(F)cc2Cl)C1 (stereo not drawn),2.22
15,O=C1CCCC(O)=C1C1NCCc2ccccc21 (stereo not drawn),19.1
16,Cc1cccc(CNC(=O)CC2C(=O)NCCN2C2CCCC2)c1 (stereo not drawn),16.5
17,COc1ccc(N2CCN(C(=O)CSc3ccccc3N)CC2)cc1,3.07
18,COc1ccc(C2(C(F)(F)F)NC(=O)N(C)C(=O)N2C)cc1 (stereo not drawn),-5.97
19,FC(F)(F)c1ccccc1N/N=C/c1cccnc1,12
20,Cc1sc2ncnc(N3CCC(C(=O)Oc4cccc(Cl)c4Cl)CC3)c2c1C,9.66
21,Cc1ccc(OCc2nnc(SCC(=O)Nc3sc(C)c(C)c3C#N)n2C)cc1,12.8
22,Cc1ccc2[nH]c3c(N4CCc5ccccc5C4)ncnc3c2c1,-4.52
23,CN(CC(=O)Nc1nccs1)S(=O)(=O)c1ccc(F)cc1,-10.3

row,Compound,"hERG current change (%, negative = inhibition) at 10uM [%]"
1,COc1ccc(CN(CC(=O)NC2CCCC2)C(=O)CCC(=O)Nc2nc(C)cs2)cc1,-31.2
2,Cc1ccc(-c2cc(C(F)F)n3ncc(C(=O)N4CCc5ccccc5C4)c3n2)cc1,3.49
3,O=C(C(Sc1ccccc1)c1ccccc1)N1CCN(c2ccccc2)CC1 (stereo not drawn),7.34
4,Cc1ccc(Nc2nc(N)c([N+](=O)[O-])c(N3CCOCC3)n2)cc1C,-13.9
5,CC(=O)Nc1ccc(Oc2nc(C)cc(C)n2)cc1,2.99
6,O=C(c1cccc(Br)c1)N1CCN(c2ccccn2)CC1,-4.19
7,O=C(CN1C(=O)CC(c2ccco2)Sc2ccccc21)NC1CCCCC1 (stereo not drawn),-33.5
8,CC(=O)NCCc1nc2ccccc2n1Cc1cccc(C)c1,-5.94
9,NC(=O)NC(=O)C(Nc1ccc2c(c1)CCC2)c1ccccc1 (stereo not drawn),20.2
10,COc1ccc(-c2[nH]c(-c3ccc(C)cc3)nc2SCC(=O)NC2CCCC2)cc1,-16.5
11,COc1ccc(C(=O)Nc2cc([N+](=O)[O-])ccc2N2CCN(C)CC2)cc1,-30.3
12,C#CCn1c(=NC(=O)CSCC(=O)N2CCOCC2)sc2ccccc21,-1.74
13,Cc1cccc(N2CCN(S(=O)(=O)c3ccc4c(c3)CCCN4C(=O)C3CCC3)CC2C)c1 (stereo not drawn),8.97
14,Cc1nn(CC(=O)NCc2ccccc2Cl)c(C)c1[N+](=O)[O-],6.99
15,O=C(COc1ccc2c(-c3ccccc3)cc(=O)oc2c1)NCc1cccs1,15.2
16,O=C(O)CN1C(=O)NC2(CCc3ccccc32)C1=O (stereo not drawn),8.91
17,COc1ccc(-c2n[nH]c3c2CN(C(=O)c2ccc(F)cc2)CC3)cc1,-33.5
18,Cc1c(NC(=O)CSc2nc3c(cnn3-c3ccccc3)c(=O)[nH]2)c(=O)n(-c2ccccc2)n1C,19.3
19,Cc1cc(=O)oc2c(C(=O)/C=C\c3cccs3)c(O)ccc12,11.1
20,O=C(C1CCCCC1)N1CCN(c2ccnc3cc(Cl)ccc23)CC1,-66.1
21,Cc1ccccc1SCC(=O)OCC(=O)NCCNC(=O)COC(=O)CSc1ccccc1C,-5.38
22,O=S(=O)(NCc1ccc2c(c1)OCO2)c1ccccc1F,7.53
23,Cc1ccc(-n2nnnc2SC(C)C(=O)Nc2ccccc2-c2ccccc2)cc1 (stereo not drawn),0.482

row,Compound,"hERG current change (%, negative = inhibition) at 10uM [%]"
1,COc1ccc(CCNc2oc(Cc3cccc4ccccc34)nc2C#N)cc1OC,-1.3
2,COC(=O)CC(NC(=S)N1CC2C[C@@H](C1)Cn1c2cccc1=O)C(=O)OC (stereo partly drawn),10.7
3,COc1ccccc1OCC(=O)Sc1ccc(C)cc1,44.1
4,CCOc1ccc(OCCSc2nc(C)cc(=O)[nH]2)cc1,-14.3
5,Cc1nc2c(C#N)cnn2c2c1CCN2CC1CCCO1 (stereo not drawn),-51.7
6,Cc1onc(-c2ccccc2Cl)c1C(=O)N1CCN(C(=O)c2ccco2)CC1,-16
7,CC(C)C(NC(=O)c1ccc(F)cc1)C(=O)NC1(C)CCS(=O)(=O)C1 (stereo not drawn),1.84
8,N#Cc1c(/N=C/N2CCOCC2)sc2c1CCCCC2,-32.6
9,CNC(=S)N/N=C/c1ccc(N2CCOCC2)s1,51.6
10,CC(OC(=O)c1cccc(S(=O)(=O)N2CCCCCC2)c1)C(=O)Nc1ccc(S(N)(=O)=O)cc1 (stereo not drawn),12.7
11,COc1ccc(-c2nc(N)ncc2-c2ccccc2OC)c(O)c1,14.1
12,Brc1ccc(CSc2ccc3nnc(-c4ccccn4)n3n2)cc1,-67.1
13,CC/C(=N/NC(=O)CCC(=O)Nc1ccccc1OC)c1ccccc1,-1.67
14,CCOC(=O)c1ccc(NC(=O)CSc2nc3ncccc3[nH]2)cc1,-9.61
15,Cc1cc(NC(=O)C2(c3ccccc3)CCCC2)no1,10.3
16,Cc1nnc(NC2=NCCC2)o1,3.71
17,COc1ccccc1C1CC(=O)Nc2cc3c(cc21)OCCO3 (stereo not drawn),4.83
18,S=C(Nc1ccccc1)N1CCc2ccccc21,-29.4
19,O=C(Nc1cccc(N=Cc2cc(Cl)cc(Br)c2O)c1)c1ccco1,3.97
20,Cc1ccccc1-n1c([O-])c([C@@H](c2cc[nH+]cc2)c2c(O)n(-c3ccccc3C)c(=O)[nH]c2=O)c(=O)[nH]c1=O,16.1
21,CCCOc1ccc(C(=O)CCC(=O)NNC(=O)Cn2nc(C)cc2C)cc1,11.3
22,Cc1ccc(NC(=O)CNC(=O)c2ccco2)nc1,17.3
23,O=C(CNc1cccc(C(F)(F)F)c1)N/N=C/c1cccc(Br)c1,18.5

row,Compound,"hERG current change (%, negative = inhibition) at 10uM [%]"
1,COc1ccccc1N1C(=O)CCC1(C#N)c1ccc(Br)cc1 (stereo not drawn),-11.2
2,O=C(COC(=O)c1cc(F)cc(F)c1)NCCCc1ccccc1,13.3
3,CCCCN(C(=O)NC(=O)Nc1ccccc1OC)S(C)(=O)=O,-2.42
4,CC(=O)c1c(C(C)=O)c(C)n(-c2ccc(O)cc2)c1C,-5.11
5,CCOC(=O)N1CCN(c2nc(-c3ccccc3)c3ccccc3n2)CC1,5.1
6,CCOC(=O)c1cc(NC(=O)CC(C)(C)CC(=O)O)ccc1N1CCCCC1,11.8
7,O=c1cc(-c2ccccc2)[nH]n1-c1ccc([N+](=O)[O-])cc1,6.67
8,Cc1ccc(C)c(NC(=O)CC2Oc3ccccc3NC2=O)c1 (stereo not drawn),8.97
9,CCC/C=N/Nc1nnc(Cc2ccc(OC)c(OC)c2)c(=O)[nH]1,27.2
10,COc1ccc(CNC(=O)CN(C(=O)c2csnn2)c2ccccc2F)cc1,4.22
11,C/C(N)=C(/C#N)C(=O)COC(=O)c1cc2c(s1)CCCC2,-27.1
12,CC(=O)Nc1ccc(C(=O)CSc2nnc(Cc3ccccc3)o2)cc1,-7.75
13,CCOC(=O)c1ccc(NC(=O)CSc2nnc(C)n2-c2ccccc2)cc1,-7.51
14,O=C(N1CCCC1)C12CC3CC(CC(C3)C1)C2,3.47
15,O=C(/C=C/c1ccco1)Nc1ccccc1N1CCOCC1,3.68
16,O=C(N/N=C\C=C\c1ccc2c(c1)OCO2)C1COc2cc3ccccc3cc2O1 (stereo not drawn),3.33
17,CCOC(=O)CN1C(=O)N[C@@H](CCc2ccccc2)[C@H](C(=O)OC)[C@H]1C,9.57
18,COc1cc2c(=O)n(-c3ccc(C)cc3)c(=O)n(CC(=O)c3ccc4c(c3)OCO4)c2cc1OC,-0.013
19,Cc1ccc(-c2csc(Cc3nc(-c4ccc5c(c4)CCC(=O)N5)cs3)n2)cc1,3.34
20,CCn1cc(C(=O)N[C@H](C(=O)NCCN2CCOCC2)C(C)C)c(=O)c2cc3c(cc21)OCO3,18.2
21,COc1ccc(CCC(=O)NCCS(=O)(=O)N2CCN(c3ccccc3OC)CC2)cc1,-8.87
